Source: PubChem BioAssay AID1240 (Sanford-Burnham Center for Chemical Genomics, 2008)
Among all 50,000 compounds or so, about 800 (1.6%) showed an effect of 50% or more. The list shows a part of the results.

What follows are compounds tested against Bcl-2-like protein 10 (Homo sapiens) (UniProt Q9HD36) (assay: Phenotype converters, Bcl-B/TR3 peptide binding displacement, primary biochemical FP (AID 1240;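 further: 0% = Bcl-B with tracer peptide and DMSO and 100% = tracer peptide lacking Bcl-B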)). Settings: GST-Bcl-B / FITC-TR3 peptide fluorescence polarization; stronger effect = higher value; compound at 3.75 mg/L.
Chain of UniProt Q9HD36 (Q9HD36 whole entry, looked up): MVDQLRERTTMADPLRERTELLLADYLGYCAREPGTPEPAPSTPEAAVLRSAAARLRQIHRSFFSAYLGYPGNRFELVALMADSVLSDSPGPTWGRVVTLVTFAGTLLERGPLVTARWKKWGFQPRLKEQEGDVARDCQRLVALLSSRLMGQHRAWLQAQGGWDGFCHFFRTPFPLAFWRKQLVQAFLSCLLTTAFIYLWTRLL

SMILES | displacement [%]
Cc1ccc(N2C(=O)c3ccc4c5c(ccc(c35)C2=O)CC4)c(C)c1 | 11.9
Cc1ccc(Cn2c3ccccc3n3cc(-c4ccc([N+](=O)[O-])cc4)nc23)cc1 | 23.1
CC(C)C1S/C(=N/N=C/c2ccco2)NC1=O (stereo not drawn) | 46.5
O=C(Cn1cc(C=C2C(=O)NC(=S)NC2=O)c2ccccc21)Nc1ccccc1 | 130
Cc1ccc(NC(=O)CSc2ccccn2)cc1 | 11.9
CC(C)(C)c1ccc(C(=O)Nc2cccc(Br)c2)cc1 | -12.4
COc1cc(NC(=O)c2cccs2)c(OC)cc1Br | -59.2
COC(=O)c1ccccc1NC(=O)COc1ccccc1 | -11.9
COc1ccc(-c2nnc(NC(=O)c3cccs3)s2)cc1OC | -5.7
O=C(/C=C/c1cccc([N+](=O)[O-])c1)Nc1ccc(Cl)cn1 | 6
COc1cc(C=O)ccc1Oc1nc(Nc2ccc(F)cc2F)nc(N2CCOCC2)n1 | 16.8
C=C1CSc2nc(=O)c3c4c(sc3n21)CCCC4 | -13.2
Cc1nccn1-c1c([N+](=O)[O-])c(=O)n(C)c2ccccc12 | 7.2
CC(=O)NCC1=C(NC(C)=O)C2CC1C(C)(C)C2C (stereo not drawn) | -4.4
O=C(Nc1ccc(OC(F)(F)F)cc1)c1cc2ccccc2o1 | -3.9
COc1ccc(NS(=O)(=O)c2cc(C(=O)c3ccc(Br)cc3)ccc2C)cc1 | 0.9
Nc1nc(-c2ccccc2)c(N)c(-c2ccccc2)n1 | 6.9
CCN(CC)CCNC(=O)c1ccc(NC(=S)NC(=O)c2cccnc2)cc1 | 18.6
CCOc1ccc(NC(=O)C2C3CCC(C3=C(C)C)C2C(=O)O)cc1 (stereo not drawn) | -4.5
CC12CC3(C)CC(C)(C1)CC(C(=O)NCCO)(C2)C3 | 0.3
O=C(NC1CCS(=O)(=O)C1)/C(=C\c1ccco1)NC(=O)c1ccccc1 (stereo not drawn) | 3.9
NC(=O)CSc1nc2ccc([N+](=O)[O-])cc2s1 | 15.8

SMILES | displacement [%]
CC(=O)c1ccc(NC(=O)C2CC=C(C)CC2C(=O)O)cc1 (stereo not drawn) | 1.8
COc1cccc(C(=O)Nc2cccc(-c3cn4ccccc4n3)c2)c1 | 8.5
CCOC(=O)CNC(=O)c1ccc(Br)o1 | 3.4
O=C(Nc1cccc(-c2nc3cc(Cl)ccc3o2)c1)c1ccc(Br)o1 | -7.8
O=C(Nc1ccc(-c2nc3ccccc3o2)c(O)c1)c1ccc(-c2ccc(Cl)cc2Cl)o1 | 41.3
CCOC(=O)c1c(-c2ccccc2)oc2cc(Br)c(OC(=O)CC)cc12 | 8.8
Cc1ccc(C)c(NC(=O)C2CCC(C)(C(=O)O)C2(C)C)c1 (stereo not drawn) | 5.9
Cc1cc(/C=C2\C(=O)NC(=O)N(c3cccc(F)c3)C2=O)c(C)n1-c1cccc([N+](=O)[O-])c1 | 12.3
C=C(C)Cn1c(SCC(=O)NN)nnc1-c1ccc(Br)cc1 | -13.1
CC(=O)/C=C(\C)NC(=O)c1sc2ccccc2c1Cl | 0.3
C=CCOc1c(Cl)cc(/C=C2\C(=O)NC(=O)N(c3ccc(C)cc3)C2=O)cc1OC | -2.1
O=C(Nc1cc(NC(=O)c2ccccc2)cc(C(=O)Nc2nccs2)c1)c1ccccc1 | 4.4
Cc1c(C(=O)Nc2ccccc2C(F)(F)F)cccc1[N+](=O)[O-] | -9.3
O=C1CC(c2ccccc2[N+](=O)[O-])c2ccccc2N1 (stereo not drawn) | -5.1
O=C1C(=Cc2ccc(Cl)cc2)C(=O)c2ccccc21 | 17.1
O=C(NN=C(/C=C/c1ccccc1)/C=C/c1ccccc1)c1ccco1 | -1.7
CN1C(=O)/C(=C\c2cccc(OCCOc3ccc(Br)cc3)c2)SC1=S | 35
Cc1csc(-c2coc3cc(O)cc(C)c3c2=O)n1 | 6.8
O=C1N=c2ccccc2=C1c1sc(=O)n(-c2ccc(O)cc2)c1O | -7.3
CCC(=O)Nc1sc(C)c(C)c1C(N)=O | -13.1
COc1ccccc1N1C(=O)NC(=O)/C(=C/c2ccc(OC)c3ccccc23)C1=O | 5.3
Cc1occc1C(=O)N/N=C/c1cccc(Cl)c1 | 26.3

SMILES | displacement [%]
O=C(Nc1nnc(-c2ccc(Cl)cc2Cl)s1)c1ccccc1Br | -3.6
Cc1ccc(C(=O)Nc2ccc(N(C)C)cc2)o1 | 9.4
COc1ccc(OC)c(Nc2ccc3ccccc3n2)c1 | 33
CCOc1ccc(NC(=O)/C=C/c2ccc(F)cc2)cc1 | 12.3
O=C(NCc1ccccn1)C(=O)Nc1ccc(Br)cc1 | 6.8
COC(=O)C1=CN(Cc2ccccc2)C=C(C(=O)OC)C1c1ccc(Cl)c(Cl)c1 | 2.9
COc1ccc(C)cc1NC(=O)COc1ccc(C)cc1Br | -6.4
O=C1C2C3C=CC(CC3)C2C(=O)N1/N=C/c1ccc(I)o1 (stereo not drawn) | 15.4
Cc1ccccc1N1OC2C(=O)N(Cc3ccccc3)C(=O)C2C1c1ccc(F)cc1 (stereo not drawn) | -5.2
O=C(c1nn2c(C(F)(F)F)cc(-c3cccs3)nc2c1Br)N1CCN(c2ccc(F)cc2)CC1 | 2.1
O=C(O)CC(Cc1ccc(Br)cc1)C(=O)Nc1ccccc1 (stereo not drawn) | 12.7
COc1cc(NC(=O)Cn2nc(C(F)(F)F)c(Cl)c2C)c(OC)cc1Cl | 6
CC(=O)CC(c1ccccc1)S(=O)(=O)c1ccccc1C (stereo not drawn) | 0.2
CC1=C(C(=O)OC2CCCC2)C(c2cccc(Cl)c2Cl)C2=C(CC(C)(C)CC2=O)N1 (stereo not drawn) | 7.9
N#CC1=C(N)C(C#N)(C#N)C(c2cccnc2)C2CSCC=C12 (stereo not drawn) | 48.9
COc1ccc(C(=O)/C=C/c2ccc(-c3ccc(Cl)cc3Cl)o2)cc1 | 11.6
COc1cc(/C=N/NC(=O)c2cccc([N+](=O)[O-])c2)cc(I)c1O | -0.6
S=c1[nH]nc(-c2ccncc2)n1-c1ccccc1 | -0.3
CCOC(=O)C1NN=C(C(=O)c2ccc(OC)cc2)C1c1ccccc1 (stereo not drawn) | 13.1
O=C(O)CCC(=O)Nc1cccc(-c2cn3ccccc3n2)c1 | 10.1
CCOc1ccc(S(=O)(=O)N(CC(=O)NCc2ccco2)c2ccc(C)cc2)cc1 | 5.7
Cc1ccc(/C(O)=C/c2nc3ccc(C)cc3oc2=O)cc1 | 39.9

SMILES | displacement [%]
N#C/C(=C\c1cccs1)c1nc(-c2ccc(Cl)cc2Cl)cs1 | 129
CCOC(=O)c1c(NC(=O)COc2cc(C)ccc2C(C)(C)C)sc(C(C)=O)c1C | -2.3
COc1ccc(/C=C2\C(=O)NC(=O)N(c3cccc(Br)c3)C2=O)c(OC)c1 | 122
CC(C)(C)c1cc(Br)ccc1OCC(=O)Nc1ccccc1C(N)=O | 2.5
Cc1ccc(/C(N)=N/OC(=O)c2cccc(C)c2)cc1 | 10.6
COc1ccc(N(CC(=O)NC(C)(C)C)S(C)(=O)=O)cc1 | 0.7
COc1ccc(/C=C2/C(=O)N(c3ccccc3)N=C2c2ccccc2)c(OC)c1 | 11.4
COc1cc(C=C2C(=O)NC(=O)NC2=O)cc(I)c1OCc1ccc([N+](=O)[O-])cc1 | 9.6
C=C(C)C1CCC(C)=C1CC/C(C)=N/NC(N)=S (stereo not drawn) | 1.6
CCCCCCOc1ccc(N2C(=O)CC(N(C)Cc3ccccc3)C2=O)cc1 (stereo not drawn) | 1.5
COc1ccc(NC(=O)CSc2nc3ccccc3s2)c(OC)c1 | 9.2
COc1ccc(OC)c(NC(=O)COc2ccc(C)c(C)c2)c1 | 0.6
Cc1ccc(OC(=O)c2ccc([N+](=O)[O-])cc2)c(/C=C2\Sc3ccccc3C2=O)c1 | -9.6
CCOC(=O)C(CCOc1cc(C)c(Cl)c(C)c1)C(=O)OCC | 13.4
COc1ccc(/C=N\NC(=O)c2ccc(S(=O)(=O)c3ccc(C(=O)N/N=C\c4ccc(OC)cc4)cc3)cc2)cc1 | -5
O=C(/C=C/c1ccco1)Nc1ccccc1NC(=O)/C=C/c1ccco1 | -0.7
Cc1cc(C)nc(/N=C(/NC(=O)c2ccccc2)Nc2ccccc2)n1 | -3.5
CC1=C(C(=O)OCc2ccc3c(c2)OCO3)C(c2ccc(O)c([N+](=O)[O-])c2)NC(=O)N1 (stereo not drawn) | 11.9
COc1ccc(C(=O)Nc2nc(-c3ccc(F)cc3)cs2)cc1OC | -2.2
CN=C(Nc1ccc2c(c1)OCO2)SC1CC(=O)N(c2ccc(Cl)cc2)C1=O (stereo not drawn) | -10.4
Cc1ccc(N2C(=O)CC(Cc3ccc(Cl)cc3)C2=O)cc1C (stereo not drawn) | 14.3
Cc1c(NC(=O)C(C)Sc2ccc(Cl)cc2)c(=O)n(-c2ccccc2)n1C (stereo not drawn) | -13.6

SMILES | displacement [%]
O=c1oc2cc(OC/C=C/c3ccccc3)ccc2cc1-c1ccccn1 | 16.9
COc1ccc(N(CC(=O)N2CCOCC2)S(=O)(=O)c2ccccc2[N+](=O)[O-])c(OC)c1 | 7.3
COC(=O)CC(C(=O)OC)C(CC(=O)OC)C(=O)OC (stereo not drawn) | 16.6
O=C1/C(=C\c2ccc3c(c2)OCO3)SC(=S)N1CCc1ccccc1 | -2.3
O=C(O)c1ccc(/C=c2\sc3n(c2=O)CCN=3)cc1 | 14.9
CC(C)CNC(=O)c1cc(C(=O)NCC(C)C)cc(C(=O)Nc2ccc([N+](=O)[O-])cc2)c1 | 12.6
O=C(N/N=C/c1ccccc1O)C1CC(=O)N(c2ccc(Cl)cc2)C1 (stereo not drawn) | -26
CC12CC3(C)CC(C)(C1)CC(C(=O)NCc1cccnc1)(C2)C3 | 10
CC1=C(C(=O)OCCOC(C)C)C2(O)C(=O)c3ccccc3C2(O)N1 (stereo not drawn) | -0.4
Cc1ccc(N(CC(=O)N2CCCC2)S(=O)(=O)c2ccc(F)cc2)cc1 | 0.1
COc1ccccc1C/C(N)=N/OC(=O)COc1ccc(Cl)cc1 | 1.6
COc1ccc(CSc2nncn2C)cc1 | 1.2
Oc1cccc(/C=N/Nc2cc(N3CCCCC3)nc(N3CCCCC3)n2)c1 | -4.7
COc1ccc(CCNC(=O)C(=O)Nc2cccc(C)c2)cc1 | 4
COc1cc(C2C(C(=O)OCc3ccccc3)=C(C)NC3=C2C(=O)CCC3)cc(Cl)c1O (stereo not drawn) | 3.1
C=CCOc1c(Br)cc(/C=C2\C(=O)NC(=O)N(c3ccc(Cl)cc3)C2=O)cc1OC | 6.4
N#Cc1ccccc1NC(=O)c1ccc(Br)cc1 | 15.9
COC(=O)COc1ccc(C=C2C(=O)NC(=O)NC2=O)cc1OC | 3
Cc1ccc(S(=O)(=O)N(CC(O)CN2CCCCC2)c2cccc(C)c2)cc1 (stereo not drawn) | -3.9
CSc1nnc2c(n1)OC(c1ccncc1)Nc1ccccc1-2 (stereo not drawn) | 12.6
